Laboratory results as given in publication PMC4559445.
Results are given in words; binding and its absence hold for the method and conditions named. Some results given as binding are weak or reduced against the parent protein; the word gives no strength. Where a sequence is shown, tags or fusion partners need not be part of it.

B1: ScCyr1^(350-480), G-alpha association domain of S. cerevisiae adenylate cyclase (two-hybrid fusion) (domain or fragment, UniProt P08678 350-480)
chain: TPEYNENIPENSNSDNKREATTPTIETPISCKPSLFRLDTNLEDVTDITKTVPPTAVNSTLNSTHGTETASPKTVIMPEGPRKSVSMADLSVAAAAPNGEFTSTSNDRSQWVAPQSWDVETKRKKTKPKGR
B2: ScTpk2, PKA catalytic subunit of S. cerevisiae (two-hybrid fusion) (enzyme, UniProt P06245 1-380)
chain: MEFVAERAQPVGQTIQQQNVNTYGQGVLQPHHDLQQRQQQQQQRQHQQLLTSQLPQKSLVSKGKYTLHDFQIMRTLGTGSFGRVHLVRSVHNGRYYAIKVLKKQQVVKMKQVEHTNDERRMLKLVEHPFLIRMWGTFQDARNIFMVMDYIEGGELFSLLRKSQRFPNPVAKFYAAEVILALEYLHAHNIIYRDLKPENILLDRNGHIKITDFGFAKEVQTVTWTLCGTPDYIAPEVITTKPYNKSVDWWSLGVLIYEMLAGYTPFYDTTPMKTYEKILQGKVVYPPYFHPDVVDLLSKLITADLTRRIGNLQSGSRDIKAHPWFSEVVWERLLAKDIETPYEPPITSGIGDTSLFDQYPEEQLDYGIQGDDPYAEYFQDF
B3: ScGpr1^(679-961), ScGpa2 association domain of the GPCR Gpr1 of S. cerevisiae (two-hybrid fusion) (domain or fragment, UniProt Q12361 679-961)
chain: KEKPWNYSWAKTESKYLIEKYILKGELGEKEILKFCHSNWGKRGWYYRGKWKKRKCWKYSTNPLKRILWFVERFFKQLFELKLHFSFYDNCDDFEYWENYYSAKDSNDNKRTESDETKTNSSDRSLPSNSLELQAMLNNITAEEVEVPLFWRIIHHIPMLGGIDLDELNRLLKIRYNNDHFSLPGLKFALNQNKSHDKHQDVSTNSMVKSSFFSSNIVTNDDENSIEEDKNLRYSDASASENYLVKPTIPGTTPDPIIEAQNDNDSSDSSGIDLIAFLRNGPL
B4: ScCyr1^(1-365), N-terminal domain of S. cerevisiae adenylate cyclase (two-hybrid fusion) (domain or fragment, UniProt P08678 1-365)
chain: MSSKPDTGSEISGPQRQEEQEQQIEQSSPTEANDRSIHDEVPKVKKRHEQNSGHKSRRNSAYSYYSPRSLSMTKSRESITPNGMDDVSISNVEHPRPTEPKIKRGPYLLKKTLSSLSMTSANSTHDDNKDHGYALNSSKTHNYTSTHNHHDGHHDHHHVQFFPNRKPSLAETLFKRFSGSNSHDGNKSGKESKVANLSLSTVNPAPANRKPSKDSTLSNHLADNVPSTLRRKVSSLVRGSSVHDINNGIADKQIRPKAVAQSENTLHSSDVPNSKRSHRKSFLLGSTSSSSSRRGSNVSSMTNSDSASMATSGSHVLQHNVSNVSPTTKSKDSVNSESADHTNNKSEKVTPEYNENIPENSNSDN
B5: ScCyr1^(600-800), RAS-association domain of S. cerevisiae adenylate cyclase (two-hybrid fusion) (domain or fragment, UniProt P08678 600-800)
chain: SSYTNAYMEANREQDNKTPILNKTKSYTKKFTSSSVNMNSPDGAQSSGLLLQDEKDDEVECQLEHYYKDFSDLDPKRHYAIRIFNTDDTFTTLSCTPATTVEEIIPALKRKFNITAQGNFQISLKVGKLSKILRPTSKPILIERKLLLLNGYRKSDPLHIMGIEDLSFVFKFLFHPVTPSHFTPEQEQRIMRSEFVHVDLR

What was measured:
[1] = target: T1, ScGpa2, G-alpha protein of S. cerevisiae (two-hybrid fusion) (S. cerevisiae) (UniProt P10823); assay: two-hybrid; Matchmaker GAL4 Two-Hybrid System 3; yeast AH109 co-transformed with pGBKT7 bait and pGADT7 prey; growth on SD-Ade/-His/-Leu/-Trp plates and blue colonies on alpha-X-gal; genes swapped between the vectors, positive only if positive in both
T1 sequence: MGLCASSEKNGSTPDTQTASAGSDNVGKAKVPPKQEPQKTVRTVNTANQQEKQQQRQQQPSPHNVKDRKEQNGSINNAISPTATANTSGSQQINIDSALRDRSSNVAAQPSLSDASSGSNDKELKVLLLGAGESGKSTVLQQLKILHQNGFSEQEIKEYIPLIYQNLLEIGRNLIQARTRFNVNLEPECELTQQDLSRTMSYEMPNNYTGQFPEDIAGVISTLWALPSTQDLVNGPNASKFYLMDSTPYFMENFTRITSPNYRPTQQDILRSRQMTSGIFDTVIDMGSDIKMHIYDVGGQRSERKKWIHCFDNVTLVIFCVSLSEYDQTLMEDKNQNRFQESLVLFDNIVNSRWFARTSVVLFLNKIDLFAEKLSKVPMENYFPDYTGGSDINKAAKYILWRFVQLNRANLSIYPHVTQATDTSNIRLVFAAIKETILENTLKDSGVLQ

[2] = target: T2, ScBcy1, PKA regulatory subunit of S. cerevisiae (two-hybrid fusion) (S. cerevisiae) (UniProt P07278); assay: as above
T2 sequence: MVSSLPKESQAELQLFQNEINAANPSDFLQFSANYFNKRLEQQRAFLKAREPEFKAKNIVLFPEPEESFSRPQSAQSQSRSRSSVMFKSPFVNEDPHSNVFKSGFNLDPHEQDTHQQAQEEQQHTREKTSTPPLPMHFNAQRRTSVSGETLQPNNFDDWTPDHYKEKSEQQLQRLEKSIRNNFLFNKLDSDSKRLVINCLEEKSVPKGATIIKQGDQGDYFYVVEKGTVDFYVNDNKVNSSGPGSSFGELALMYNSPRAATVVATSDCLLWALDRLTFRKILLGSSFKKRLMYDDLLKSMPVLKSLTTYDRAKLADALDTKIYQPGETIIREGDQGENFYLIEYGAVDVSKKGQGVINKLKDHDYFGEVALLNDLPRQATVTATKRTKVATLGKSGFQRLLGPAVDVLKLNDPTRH

| Binder | binding [1] | binding [2] |
| --- | --- | --- |
| B1 | binds | – |
| B2 | – | binds |
| B3 | binds | – |
| B4 | no binding | – |
| B5 | no binding | – |
